# Reference: PubChem BioAssay AID504706 (National Center for Advancing Translational Sciences (NCATS), 2011)
# Among all 320,000 compounds or so, about 200 (0.062%) were called active. This list was built around the results that the source calls inconclusive (neither active nor inactive); the mix of calls is not that of the screen. Calls follow the shape of the dose curve; as a rule, active = well fitted activation curve with a large enough effect; inconclusive = small, poorly fitted or top-dose-only effect; inactive = no such curve, though single readings can be large or run the other way. No potency is given beside an inconclusive call; the fits are too rough.
# Test: qHTS assay for re-activators of p53 using a Luc reporter; also: nearly all actives have a fitted effect of over 45% in size; as to activity change, positive = activation: % of control where 0% means no effect
# Conditions: H1299 p53-A138V BP100-luciferase reporter, luminescence, 24 h; series mostly up to 92.2 µM; activity change, positive = activation: at the top concentration
# Outline: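 p53-null H1299 cells stably carrying temperature-sensitive p53-A138V and a BP100-luciferase reporter were pinned with compounds (4-point, 1:5 series) and held 24 hrs at 37 deg C. Luminescence was read 10 min after detection reagent.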
# Potency is read from the fitted curve at half-maximal effect; tags tell the direction and shape of the fitted curve.
Structure (SMILES),Potency,"activity change, positive = activation"
CN(C)c1ccc(C#Cc2ccc3cc(CCO)oc(=O)c3c2)cc1,"inconclusive [activator, full curve, poor fit]",
CCC(C)NS(=O)(=O)c1ccc(NC(=O)C(Sc2ccccc2)c2ccccc2)cc1 (centres undefined),,inactive: 6.11%
CC(C)c1ccc(/C=N/NC(=O)C2CCCC2)cc1,"inconclusive [activator, partial curve, poor fit]",
CCC(=Nc1ccc(N)cc1)C1=C(O)C(C(=O)OC)C(C)(C)CC1=O (centres undefined),"inconclusive [activator, single point]",
COCCCNC(=S)NCCNc1nc2c(C)c(C)ccc2cc1C#N,,inactive: -4.54%
COc1ccccc1Nc1nc(N)nc(CSC(=S)N2CCCCC2C)n1 (centres undefined),"inconclusive [activator, partial curve]",
O=C(Nc1ccccc1)Nc1cccc(-c2cn3cccnc3n2)c1,,inactive: -0.332%
COC(=O)Cc1ccc(NC(=S)NCCSc2ccc(Cl)cc2)cc1,,inactive: -4.22%
CCCn1c(O)c(N=Nc2ccc3ccccc3n2)c2ccccc21,"inconclusive [activator, partial curve, poor fit]",
O=C(/C=C/c1ccc2c(c1)OCO2)c1ccco1,"inconclusive [activator, full curve, poor fit]",
O=C(CSc1ccc(-c2nc3ccccc3[nH]2)cn1)Nc1ccc2c(c1)OCCO2,"inconclusive [activator, partial curve, poor fit]",
CCc1ccc(NC(=O)CSc2nc3ccccc3nc2N2CCCCC2)cc1,,inactive: 25.5%
CCOC(=O)c1sc2nc3c(cc2c1N)COC(C)(C)C3,"inconclusive [activator, full curve, poor fit]",
Cc1cc(/C=C2/NC(=O)N(c3ccccc3)C2=O)c(C)n1C(C)C,"inconclusive [activator, partial curve, poor fit]",
C=CCNc1oc(-c2cccc3ccccc23)nc1C#N,,inactive: 3.37%
O=C(N/N=C/c1ccc(N2CCOCC2)o1)c1cccc(F)c1,"inconclusive [activator, partial curve, poor fit]",
COc1ccc(-c2csc(-c3ccccc3)n2)c(OC)c1,"inconclusive [activator, partial curve, poor fit]",
O=C(Nc1ccc(NC(=O)c2cccs2)cc1Cl)c1ccco1,"inconclusive [activator, partial curve, poor fit]",
COC1=C(Nc2ccc(O)cc2)C(=O)c2ccccc2C1=O,"inconclusive [activator, single point]",
COc1ccc(S(=O)(=O)N(CC(=O)NCc2cccnc2)Cc2ccccc2)cc1,,inactive: -0.0172%
COc1ccc(-c2cc3nc(CCl)[nH]c(=O)c3s2)cc1,"inconclusive [activator, partial curve, poor fit]",
C=CCc1c(C)nc2c(-c3ccccc3)cnn2c1N1CCOCC1,"inconclusive [activator, partial curve, poor fit]",
CCOC(=O)N1CCN(C(=O)c2ccc3c(c2)NC(=O)/C(=C\c2ccc(OC)c(OC)c2)S3)CC1,,inactive: -8.22%

Structure (SMILES),Potency,"activity change, positive = activation"
Fc1ccccc1NC(=S)Nc1ccc(CN2CCOCC2)cc1,"inconclusive [activator, partial curve, poor fit]",
CCOC(=O)c1ccc(-n2[nH]c(-c3ccccc3)cc2=O)cc1,,inactive: -6.55%
O=C(Nc1cccc(Br)c1)c1cc2ccccc2o1,"inconclusive [activator, partial curve, poor fit]",
Cc1cccc(N2CCN(C(=S)NCc3ccco3)CC2)c1C,"inconclusive [activator, single point]",
O=[N+]([O-])c1ccccc1/C=N/n1c(-c2ccccc2)n[nH]c1=S,"inconclusive [activator, partial curve, poor fit]",
Cc1cccc(Nc2nnc(SCC(=O)NC(=O)CN3CCCC3=O)s2)c1,"inconclusive [activator, partial curve, poor fit]",
CCOc1ccc(C(=O)Nc2nnn(CC)n2)cc1,"inconclusive [activator, full curve, poor fit]",
Cc1cccc(CNC(=O)C2CCC(=O)N(C3CCCCCC3)C2)c1 (centres undefined),"inconclusive [activator, single point]",
Cc1ccc2nc(-c3ccc(SCC(=O)O)nc3)[nH]c2c1,"inconclusive [activator, single point]",
Cc1cc(=O)oc2cc(NC(=O)c3ccccc3C(=O)O)ccc12,,inactive: 9.39%
Cc1ccccc1OCc1nc(-c2ccc(NC(=O)c3cccs3)cc2)no1,"inconclusive [activator, partial curve, poor fit]",
COc1cccc(-c2ncc3ccccn23)c1,"inconclusive [activator, partial curve, poor fit]",
c1ccc(-c2csc(NNC3=NCCCCC3)n2)cc1,"inconclusive [activator, full curve, poor fit]",
Cc1cc(OCC(=O)Nc2cccc(S(=O)(=O)N3CCCCC3)c2)ccc1Cl,,inactive: 18%
CCOc1ccc(CCNC(=O)C(O)c2ccccc2)cc1 (centres undefined),,inactive: 0.712%
C#CCOCCOCCOCCNc1nc(N2CCN(C(=O)CCCCCCCCCCNC(=O)Cn3cc(CCCCCN)nn3)CC2)nc(N2CCN(C(=O)CCCCCCCCCCNC(=O)Cn3cc(C[C@@H](C)O)nn3)CC2)n1,"inconclusive [activator, single point]",
Cc1cccc2c(C(=O)N3CCN(C(=O)c4ccco4)CC3)cc(-c3cccc(Br)c3)nc12,"inconclusive [activator, single point]",
COc1ccc(NC(=O)COC(=O)c2cc(=O)c3ccccc3o2)cc1OC,,inactive: 9.06%
Cc1cccc(N2CCN(C(=O)CCCOc3ccccc3)CC2)c1C,"inconclusive [activator, partial curve, poor fit]",
O=C(CC1(O)C(=O)N(C/C=C/c2ccccc2)c2ccccc21)c1ccccn1 (centres undefined),"inconclusive [activator, single point]",
Cc1cccc(NS(=O)(=O)c2ccc(C3CCCCC3)cc2)c1,,inactive: 0.377%
O=C(OCC(=O)N1CCN(S(=O)(=O)c2ccc(Cl)cc2)CC1)C1CC1,,inactive: -0.704%
O=c1cc(-c2ccccc2)oc2ccc(O)cc12,"inconclusive [activator, partial curve, poor fit]",

Structure (SMILES),Potency,"activity change, positive = activation"
CN(C)C(=S)Nc1cccc(C(F)(F)F)c1,,inactive: -3.72%
Cc1ccc(N/C=C/C(=O)C(C)(C)C)c(O)c1,"inconclusive [activator, full curve, poor fit]",
CCN(C(=O)COC(=O)/C=C/c1cnc2ccccc2n1)C1CCS(=O)(=O)C1 (centres undefined),"inconclusive [activator, partial curve, poor fit]",
COc1cc(/C=N/NC(=O)c2cc(-c3ccccc3OC(C)C)nc3ccccc23)ccc1O,,inactive: -10.2%
CC(/C=N/NC(=O)c1cc(C(C)C)[nH]n1)=C\c1ccccc1,"inconclusive [activator, single point]",
O=C(N/N=C/c1ccsc1)c1ccc2c(c1)OCO2,"inconclusive [activator, full curve, poor fit]",
CC(C)c1nnc(NC(=O)c2cc3ccccc3o2)s1,"inconclusive [activator, full curve, poor fit]",
Cc1cccc(NC(=S)NCCC(c2ccccc2)c2ccccc2)c1,,inactive: 3.95%
Cc1ccc(-c2cc3nc(-c4ccc(Br)cc4)cc(N)n3n2)cc1,,inactive: 3.96%
c1ccc(C(Cc2nc(-c3ccccn3)no2)c2ccccc2)cc1,"inconclusive [activator, partial curve, poor fit]",
OCC1(CCOc2ccccc2)CCN(Cc2cn[nH]c2-c2ccc(F)cc2)CC1,,inactive: -2.78%
CC(=O)/C(N=Nc1ccc2c(c1)OCO2)=C(\C)O,"inconclusive [activator, partial curve, poor fit]",
CCCC1=NN(c2ccc([N+](=O)[O-])cc2)C(=O)/C1=C\N(C)C,"inconclusive [activator, full curve]",
CC(C)c1ccc(NCCC(=O)c2cccs2)cc1,"inconclusive [activator, partial curve, poor fit]",
CCOC(=O)c1nn(-c2sc(C(=O)OC)c(C)c2C(=O)OC)cc1O,"inconclusive [activator, partial curve, poor fit]",
O=C(Nc1ccc2ccccc2n1)c1ccccc1,"inconclusive [activator, partial curve, poor fit]",
O=C(NCCCO)c1ccc2[nH]c3ccccc3c2c1,,inactive: -6.07%
CCOC(=O)Cn1cncc1-c1ccc([N+](=O)[O-])cc1,"inconclusive [activator, partial curve, poor fit]",
Cc1nn(Cc2ccc(C(=O)Nc3nccs3)cc2)c(C)c1Cl,,inactive: 2.51%
CCC(=O)NC(=S)NNC(=O)c1ccc([N+](=O)[O-])cc1,,inactive: 10.2%
CC(C)c1nc2c(s1)CCc1onc(-c3ccc(Cl)cc3)c1-2,"inconclusive [activator, single point]",
CCCCCC(=O)Nc1ccc(N2CCOCC2)c(S(=O)(=O)Nc2ccc(OC)cc2)c1,,inactive: -6.15%
C=CCNC(=S)N/N=C(\C)c1ccccn1,"inconclusive [activator, partial curve, poor fit]",
